From PMC5534435, “The Amyloid Precursor Protein Is a Conserved Receptor for Slit to Mediate Axon Guidance” (eNeuro, 2017)

Target: T1, FL Slit2 fused N terminally to the human alkaline phosphatase sequence (human, UniProt O94813 31-1529)
T1 construct: Slit2, full length, put in place of Netrin 5 in the vector Ntn5.a-AP-His (Addgene); also called AP-tagged Slit2; alkaline phosphatase (AP)-tagged Slit2; source: HEK293T, transfected, in supernatant; not shown: alkaline phosphatase (human), C-terminal, kept
T1 sequence (looked up): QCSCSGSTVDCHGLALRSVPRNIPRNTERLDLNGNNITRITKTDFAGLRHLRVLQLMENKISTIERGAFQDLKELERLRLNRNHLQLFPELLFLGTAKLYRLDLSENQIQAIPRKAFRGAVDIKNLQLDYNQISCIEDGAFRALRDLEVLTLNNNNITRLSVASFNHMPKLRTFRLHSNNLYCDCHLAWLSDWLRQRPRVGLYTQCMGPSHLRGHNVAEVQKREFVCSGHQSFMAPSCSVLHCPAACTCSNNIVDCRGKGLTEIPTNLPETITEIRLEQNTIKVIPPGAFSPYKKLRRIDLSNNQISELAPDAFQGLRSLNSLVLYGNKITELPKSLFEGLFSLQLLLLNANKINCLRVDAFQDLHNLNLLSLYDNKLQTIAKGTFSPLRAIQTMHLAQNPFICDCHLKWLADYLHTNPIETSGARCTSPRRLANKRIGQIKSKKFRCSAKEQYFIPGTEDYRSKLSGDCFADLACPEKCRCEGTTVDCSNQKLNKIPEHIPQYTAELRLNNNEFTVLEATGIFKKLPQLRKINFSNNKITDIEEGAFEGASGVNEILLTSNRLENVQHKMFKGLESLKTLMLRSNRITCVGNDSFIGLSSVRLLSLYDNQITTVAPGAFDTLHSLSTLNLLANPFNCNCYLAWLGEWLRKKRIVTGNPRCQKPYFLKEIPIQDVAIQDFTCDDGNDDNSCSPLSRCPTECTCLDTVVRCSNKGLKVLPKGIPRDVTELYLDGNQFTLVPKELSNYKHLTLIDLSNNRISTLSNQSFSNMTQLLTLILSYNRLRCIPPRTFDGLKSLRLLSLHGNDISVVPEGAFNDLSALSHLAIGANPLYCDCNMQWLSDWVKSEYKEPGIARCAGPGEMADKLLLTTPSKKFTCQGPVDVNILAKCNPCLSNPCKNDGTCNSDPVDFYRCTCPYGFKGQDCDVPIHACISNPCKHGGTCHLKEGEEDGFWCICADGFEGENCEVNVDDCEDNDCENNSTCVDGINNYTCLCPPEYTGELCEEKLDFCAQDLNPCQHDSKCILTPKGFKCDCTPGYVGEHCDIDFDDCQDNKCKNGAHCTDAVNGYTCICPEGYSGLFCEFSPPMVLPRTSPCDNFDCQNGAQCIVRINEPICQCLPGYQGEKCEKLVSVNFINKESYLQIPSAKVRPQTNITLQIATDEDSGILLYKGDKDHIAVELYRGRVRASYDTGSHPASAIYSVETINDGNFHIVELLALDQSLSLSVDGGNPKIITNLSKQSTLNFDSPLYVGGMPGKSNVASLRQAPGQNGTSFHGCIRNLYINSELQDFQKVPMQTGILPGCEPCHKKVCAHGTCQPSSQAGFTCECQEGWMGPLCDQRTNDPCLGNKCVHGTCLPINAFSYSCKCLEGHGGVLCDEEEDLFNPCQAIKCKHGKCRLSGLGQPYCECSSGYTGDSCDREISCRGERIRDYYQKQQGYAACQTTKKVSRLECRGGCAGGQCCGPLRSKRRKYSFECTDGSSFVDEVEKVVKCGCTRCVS
Assay: binding of alkaline phosphatase-tagged ligand to transfected cells; HEK293 cells transfected with FL APP or HA-Robo incubated with serial dilutions of supernatants with AP-tagged Slit2 and 1 μg/ml heparin, 2 h at 37°C; AP activity in cell lysates; Hill equation, Scatchard plot
Settings: partners not purified

B1: Full-length (FL) human APP695 (receptor)
chain: not shown
notes: amyloid precursor protein, human, isoform APP695 (695 residues), full length; no tag is named; precipitated with the APPc antibody; also called FL APP; amyloid precursor protein; source: HEK293, transfected
Question: With B1 as the binder, how does the Kd read?
Answer: Its Kd is 2.7 nM.
